# About 6,900 (2%) of roughly 340,000 compounds were called active. Cut-off read from the data, not from the text of the source: active = inhibition above about 30%; inactive = below that, where a call was filed. The entries are a selection whose mix differs from that of the whole data set. Where no call is shown, the source filed none.
# Biological target: D(2) dopamine receptor (Homo sapiens) (UniProt P14416)
# Assay: HTS Assay for Allosteric Antagonists of the Human D2 Dopamine Receptor: Primary Screen for Antagonists; note: 0% is about no effect
# Settings: HEK293 TREx D2 cells, calcium flux, dopamine EC80; at 10 µM; stronger effect = higher value
# How it was run: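 In this primary screen, negative modulation is detected by tracking calcium flux after an EC80 dopamine challenge in inducible HEK293 T-REx D2 cells preexposed to test compound for 180 s.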
# UniProt P14416, sequence (P14416 whole entry, looked up): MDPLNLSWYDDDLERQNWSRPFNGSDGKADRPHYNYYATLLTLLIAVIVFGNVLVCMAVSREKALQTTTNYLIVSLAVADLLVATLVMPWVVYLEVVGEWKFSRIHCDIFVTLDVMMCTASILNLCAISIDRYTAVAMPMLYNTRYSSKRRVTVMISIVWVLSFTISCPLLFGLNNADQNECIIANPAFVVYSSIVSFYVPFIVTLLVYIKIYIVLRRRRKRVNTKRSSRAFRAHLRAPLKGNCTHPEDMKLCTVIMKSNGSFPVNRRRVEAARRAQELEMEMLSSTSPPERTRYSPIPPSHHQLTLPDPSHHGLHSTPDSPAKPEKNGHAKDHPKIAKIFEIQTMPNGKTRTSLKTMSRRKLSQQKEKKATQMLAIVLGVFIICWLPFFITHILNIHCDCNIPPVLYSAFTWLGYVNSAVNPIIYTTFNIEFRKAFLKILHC
row,SMILES,inhibition
1,CCCCOC(=O)c1ccc(NC(=O)c2sc3nc(C)cc(C)c3c2N)cc1,4.26%
2,O=C(Cn1c(=O)nc(-c2ccccc2)c2ccccc21)Nc1ccc(Cl)cc1F,13.6%
3,COc1ccc(NC(=O)C2=C(C)Nc3nc(SCc4ccc(Cl)cc4)nn3C2c2cccc(OC)c2OC)cc1 (configuration not stated),-0.783%
4,COc1ccc(N(C)C(=O)Cn2cc(S(=O)(=O)N3CCN(c4ccccc4F)CC3)c3ccccc3c2=O)c(OC)c1,7.48%
5,CC1CCN(c2ccc(-c3cccc(NS(=O)(=O)c4ccc(F)cc4F)c3)nn2)CC1,-7.4%
6,CCOC(=O)c1sc(NC(=O)c2c(-c3ccccc3)c(-c3ccccc3)nn(C)c2=O)nc1C,20.3%
7,CC1CCN(C(=O)CSc2nc(-c3ccc(F)cc3)cc(C(F)(F)F)n2)CC1,6.38%
8,CCOC(=O)c1ccc(NC(=O)c2cn3c4c(ccc(Cl)c4c2=O)OC(C)C3)cc1 (configuration not stated),12.5%
9,COc1ccc(S(=O)(=O)N2CCN(c3ccccc3OC)CC2)cc1,7.75%
10,CCCc1nn2c(=O)cc(COC(=O)CNC(=O)COc3ccc(C)cc3)nc2s1,-5.21%
11,COc1cc(OC)c(N(C)C(=O)Nc2cn(CC(C)C)c(=O)c3ccccc23)cc1Cl,-4.07%
12,Cc1ccc(-c2nc(C)c(CCNC(=O)c3ccccc3Br)s2)cc1,8.61%
13,COc1ccc(NC2=C(c3ccc(C(F)(F)F)cc3)C(=O)c3ccccc32)cc1,-7.54%
14,COc1cccc(NC(=O)CN2C(=O)c3ccccc3Sc3ncccc32)c1,12.9%
15,Cc1ccc(-n2nc(C)c3c(C(F)(F)F)cc(-c4cccnc4)nc32)cc1Cl,-0.178%
16,COc1ccccc1C(=O)Nc1c(C(=O)NC(C)(C)C)oc2ccccc12,-10.1%
17,CCCN(Cc1cc2cccc(C)c2[nH]c1=O)C(=O)c1cccc(Cl)c1,-4.83%
18,Cc1cccc(NC(=O)C2CCCN(C(=O)Nc3ccc(F)cc3)C2)c1 (configuration not stated),active: 31.3%
19,CCOC(=O)C1(CC2CC2)CCN(Cc2cn(C)c3ccccc23)CC1,active: 30.3%
20,Cc1ccc(CSc2cn(CC(=O)N3CCCCCC3)c3ccccc23)cc1,-11.7%
21,CCOc1ccccc1CNCCCSc1nnnn1C,7.91%
22,CCOC(=O)c1ccc(NC(=O)CSc2nc3c(c(=O)[nH]2)CN(Cc2ccccc2)CC3)cc1,-16.3%
23,COc1ccc(-n2nc3c(N4CCC(C(=O)NCc5ccccc5C)CC4)nnc(C)c3c2C)cc1,18.5%
24,CCOC(=O)N1CCC(NC(=O)c2c(C)nn(-c3cccc(C)c3)c2-n2cccc2)CC1,5.32%
25,COc1ccccc1Nc1ncc2c(n1)CCN(Cc1ccc(C)s1)C2,-1.5%

row,SMILES,inhibition
1,Cc1cc(F)ccc1NC(=O)CCS(=O)(=O)c1cc2c(cc1C)NC(=O)CO2,-22.7%
2,Cc1ccc2c(=O)c(C(=O)c3cccc(Cl)c3)cn(CC(=O)NC3CCCCC3)c2n1,-2.95%
3,Cc1ccc(N(CC(=O)N2CCN(c3ccc(F)cc3)CC2)S(=O)(=O)c2c(C)noc2C)cc1,-4.93%
4,CC(C)(C)C(=O)NCCc1nc2ccccc2n1CCCCOc1ccccc1,-13.7%
5,CCOc1ccc(C2c3c(-c4cc(C)ccc4O)n[nH]c3C(=O)N2Cc2cccnc2)cc1OCC (configuration not stated),-0.0778%
6,COc1ccccc1NC(=O)CC(C)n1nc(C)cc1C (configuration not stated),14.9%
7,Cc1ccc(C2=NN(CC(=O)NCCc3ccccc3)C(=O)CC2)cc1,24.5%
8,Cc1cccc(OC(=O)CSc2nnc(-c3ccc4c(c3)OCO4)o2)c1C,9.52%
9,Cc1cn(C)c(CC(=O)NCc2ccc(Cl)cc2)c1C(=O)O,-18%
10,COc1cccc(Cn2c(=O)n(CC3CCC(C(=O)NC(C)C)CC3)c(=O)c3sccc32)c1 (configuration not stated),-5.28%
11,COc1cc(NC(=O)CN2C(=O)CCc3cc(Br)ccc32)cc(OC)c1OC,-3.91%
12,Cc1ccc(CCNS(=O)(=O)c2ccc3c(c2)C(C(C)C)C(=O)N3)cc1 (configuration not stated),-17.1%
13,Cc1cccc(-c2noc(-c3cc(C(C)C)[nH]n3)n2)c1,-1.93%
14,CC(=O)N1c2ccccc2C(=O)C1N1CCN(c2cccc(Cl)c2)CC1 (configuration not stated),6.64%
15,CN(C)CCNC(=O)CN1C(=O)COc2ccc(C(C)(C)C)cc21,active: 35.5%
16,COCCNC(=O)Cn1nc(-c2ccccc2)c2ccccc2c1=O,3.27%
17,COc1cc(OC)c(C2CC(=O)Nc3ccc4ccccc4c32)cc1OC (configuration not stated),9.55%
18,COC(=O)c1ccccc1NC(=O)c1nc(-c2ccc(C)cc2)n2c1CCCCC2,21.1%
19,CC(NC(=O)Cn1c(=O)oc2cc(S(=O)(=O)N3CCCCCC3)ccc21)c1ccccc1 (configuration not stated),-0.717%
20,CC(NC(=O)c1cc2c(=O)n3ccccc3nc2n(C(C)C)c1=N)c1ccccc1 (configuration not stated),4.83%
21,CC(C)Cn1cc(NC(=O)NCc2cccc(Cl)c2)c2ccccc2c1=O,-1.5%
22,COc1ccc(NC(=O)c2cccc(N3CCCS3(=O)=O)c2)c(OC)c1,5.68%
23,O=C(NCCC1=CCCCC1)c1ccc2c(c1)sc1nc(-c3ccc(F)cc3)cn12,23.4%
24,O=C(NCCc1ccccc1)c1ccc2c(c1)N(Cc1ccc(F)cc1)C(=O)CS2,-5.32%
25,COc1ccc(OCC(O)CNC(=O)Nc2cc(F)ccc2C)cc1 (configuration not stated),active: 38.2%

row,SMILES,inhibition
1,CCN(CC)c1ccc(NC(=O)CN2CCN(CC(=O)Nc3ccc(Cl)cc3)CC2)cc1,-5.69%
2,N#Cc1ccsc1NC(=O)CN1C(=O)NC2(CCCC2)C1=O,active: 40.5%
3,Cc1ccc(Cn2c(CCNC(=O)c3cccc(C)c3)nc3ccccc32)cc1,10.2%
4,COc1ccc(Cl)cc1NC(=O)CSC1=Nc2ccccc2C2=NC(CCC(=O)NCc3ccco3)C(=O)N12 (configuration not stated),2.69%
5,CCOC(=O)c1c(NC(=O)c2cc(=O)c3cc(C)ccc3o2)sc2c1CCCC2,1.51%
6,Cc1cccc(NC(=O)CN2C(=O)C3(SCC(=O)N3c3ccccc3)c3ccccc32)c1 (configuration not stated),-8.09%
7,Cc1ccc(S(=O)(=O)N(C)C)cc1NC(=S)NCc1ccco1,active: 39.7%
8,Cc1ccc(S(=O)(=O)N2CCN(Cc3ccccc3Cl)CC2)cc1,-7.55%
9,CN1CCN(c2ncnc3c2cnn3-c2cccc(Cl)c2)CC1,13.5%
10,COc1cc(OC)c(OC)cc1/C=C/c1nc2cc3ccccc3cc2c(=O)n1-c1ccccc1Br,13.4%
11,COc1cc2c(c(OC)c1)C(c1cccc(F)c1F)CC(=O)N2 (configuration not stated),-1.97%
12,COc1cccc(CNC(=O)c2ccc(-c3nc(CSc4ccccc4)c(C)o3)cc2)c1,-0.603%
13,CCn1cc2nc(SCc3ccccc3Cl)n(Cc3ccc(OC)cc3)c(=O)c2n1,-8.75%
14,COc1ccc(-c2c(C)c3ccc(O)c(CN4CCC(C)CC4)c3oc2=O)cc1OC,10.9%
15,CC(=O)Nc1ccccc1-c1nc2ccccc2n(C(C)C(=O)Nc2ccccc2C(F)(F)F)c1=O (configuration not stated),9.28%
16,CCCN(CCC)CCCNC(=O)c1cc2c(=O)n(C)c3ccccc3c2s1,-5.4%
17,NC(=O)C1CCN(C(=O)COc2ccc3c4c(c(=O)oc3c2)CCCC4)CC1,active: 30.8%
18,COc1ccc(C(Nc2ccccn2)c2ccc3ccc(C)nc3c2O)cc1C (configuration not stated),-18.3%
19,COc1ccc(NC(=O)C(=O)NCCc2csc3nc(-c4ccccc4F)nn23)cc1OC,-1%
20,CC(=O)c1ccc(NS(=O)(=O)c2ccc3c(c2)NC(=O)CCS3)cc1,8.09%
21,O=C(O)c1ccccc1C(=O)Nc1ccc(Br)c2cccnc12,-18.3%
22,COc1ccc(C)cc1NC(=O)c1ccc(CN2CCN(c3ccccc3)CC2)cc1,active: 88.8%
23,CCN1CCN(c2oc(-c3ccc(COc4ccccc4C)o3)nc2C#N)CC1,-22.4%
24,Cc1noc(C)c1S(=O)(=O)N(CC(=O)Nc1ccc(F)cc1F)c1ccc(C(C)C)cc1,-4.59%
25,CCCNC(=O)c1ccc2c(c1)nc1n2CCCCC1,0.957%

row,SMILES,inhibition
1,COc1cccc(CNC(=O)Cn2ncn3nc(-c4cccs4)cc3c2=O)c1,15.9%
2,COc1ccc(Cn2ccc3nc(C)c(C(=O)Nc4cccc(SC)c4)cc3c2=O)cc1,4.8%
3,Oc1c(C(Nc2ccccn2)c2ccccc2F)ccc2cccnc12 (configuration not stated),-10.4%
4,O=C(CSc1nc(=O)n(Cc2ccccn2)c2c1CCC2)Nc1ccccc1,-2.65%
5,CSc1ccccc1NC(=O)CCS(=O)(=O)c1nc(-c2ccc3c(c2)OCO3)cc(C(F)(F)F)n1,15.3%
6,CC(C)(C)OC(=O)N1CCC(c2c(C(=O)NC3CCCCC3)cnn2-c2ccc(F)cc2F)CC1,-4.03%
7,Cc1ccc(S(=O)(=O)C(CNS(=O)(=O)c2cc(F)ccc2F)c2cccs2)cc1 (configuration not stated),10.3%
8,COc1cc(CNC(=O)c2cnc(SC)nc2-c2ccccc2)cc(OC)c1OC,-21.5%
9,Cc1cccc(S(=O)(=O)c2cn(Cc3ccccc3)c3cc(N4CCCCC4)c(F)cc3c2=O)c1,1.23%
10,COC(=O)c1ccccc1NS(=O)(=O)c1cc2c(cc1C)N(C)CCO2,9.42%
11,COc1ccccc1N1CCN(C(=O)CN2C(=O)COc3ccc(S(=O)(=O)N4CCOCC4)cc32)CC1,4.69%
12,CCN(CC)C(=O)c1c(-c2ccccc2)c(-c2ccccc2)nn(CC)c1=O,10.1%
13,COc1ccc(CCC(=O)NC2CC(=O)N(c3ccc(F)cc3)C2)cc1 (configuration not stated),27.8%
14,COc1ccc(-c2nc3sc(CCNC(=O)c4ccc(Br)o4)c(C)n3n2)cc1,-0.724%
15,CCN(Cc1nc(-c2ccc(OC)c(OC)c2)no1)S(=O)(=O)c1ccc(OC)cc1,-13.2%
16,CCn1cc(/C=C(\NC(=O)c2cc(OC)c(OC)c(OC)c2)C(=O)NCCCn2ccnc2)c2ccccc21,-3.61%
17,Cc1cc(NC(=O)Cc2ccccc2)cc(-c2nc3ccccc3o2)c1O,-5.14%
18,Cc1c(C(=O)NCCN(C)C)oc2c1-c1nn(Cc3cccc(Cl)c3)cc1CC2,-2.77%
19,Cc1nc(-c2ccc(F)cc2)sc1CCNC(=O)Cc1ccc(F)cc1,-5.97%
20,CCOC(=O)c1cc2c(=O)n3ccccc3nc2n(C(C)C)c1=NC(=O)C(C)(C)Oc1ccc(Cl)cc1,6.14%
21,CN(C)c1ccc(Nc2ncnc3c2c(-c2ccccc2)cn3-c2cccc(Cl)c2)cc1,1.44%
22,O=C1CN(C(=O)c2ccc(S(=O)(=O)N3CCCC3)cc2)C(c2ccccc2)c2cc(F)ccc2N1 (configuration not stated),-5.17%
